Measurements as given in the RNAGym collection of RNA variant scans (doi:10.1073/pnas.2313332121).
This sample is rich in variants without activity.

B1: TPR 5TU (parent)
chain: GGAUCUUCUCGAUCUAACAAAAAAGACAAAUCUGCCACAAAGCUUGAGAGCAUCUUCGGAUGCAGAGGCGGCAGCCUUCGGUGGCGCGAUAGCGCCAACGUUCUCAACUAUGACACGCAAAACGCGUGCUCCGUUGAAUGGAGUUUAUCAUG

Variants of: B1
Experiment: polymerase ribozyme fitness, log enrichment relative to wild type (log ratio); higher = more active; in vitro selection for triplet polymerase activity
How it was run: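 Each subunit of a heterodimeric triplet polymerase ribozyme was mutagenized into a library by PCR, transcribed, and subjected to one round of in vitro selection, run in triplicate. Libraries were annealed with a biotinylated primer, the partner subunit and triplets, incubated frozen at −7 °C, and extended constructs were gel-excised, captured on streptavidin beads and recovered by RT-PCR. Input and output libraries were sequenced on Illumina, keeping genotypes with ≥10 input reads and ≥1 read per output. Fitness is log base 2 of genotype enrichment divided by wild-type enrichment, from inverse-variance-weighted replicate averages.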

Row | Variant | polymerase ribozyme fitness (log ratio)
1 | A3U A20C C87A A91G U104C C114A G141A | ≤ -4.2
2 | A3U A20G A28U C54A U55G C72U A106U C116U | ≤ -4.2
3 | A3U A20G U45G C85G | ≤ -4.2
4 | A3U A20U C32U A49C G59C C69A A91C U139A A147C | ≤ -4.2
5 | A3U A21C C32U A37U G58A A89C C95A A137G | ≤ -4.2
6 | A3U A21G C51U U56A A91C G94A U104G A115G U135A | ≤ -4.2
7 | A3U A21G G46A C85A C87U U127A U130G | ≤ -4.2
8 | A3U A21U C35U A52G G80C G128A | ≤ -4.2
9 | A3U A22G A39C G83A C114U A115C G140C | ≤ -4.2
10 | A3U A22U C35A A73G C125A A147G | ≤ -4.2
11 | A3U A23G A66G C93U C103U A119G G141C | ≤ -4.2
12 | A3U A23G A89U A98U | ≤ -4.2
13 | A3U A24C U31G A40U G50C C69G A97U G124A G143A | ≤ -4.2
14 | A3U A24G A26C A60G G83A | ≤ -4.2
15 | A3U A24U A66U C93G A107C | ≤ -4.2
16 | A3U A26C G81A C87U G88C G124C G136U G140C | ≤ -4.2
17 | A3U A26G A28U A29C G58U G88C | ≤ -4.2
18 | A3U A26U A29U A49C C87U C114U G141A | ≤ -4.2
19 | A3U A26U C57U C108U C125A A147C U148G | ≤ -4.2
20 | A3U A29U G74A C85A G117U A119C G141U | ≤ -4.2
21 | A3U A30C G48A C54U C87U | ≤ -4.2

Row | Variant | polymerase ribozyme fitness (log ratio)
22 | A3U A30G G42A C75A C95A | ≤ -4.2
23 | A3U A30U U33C A41G C57U A60U C87U C118A C132G A150C | ≤ -4.2
24 | A3U A37C A52C A73G A89G C95A U111A C129A U134G | ≤ -4.2
25 | A3U A37C G80A C87G A98U A107C | ≤ -4.2
26 | A3U A37U U56A A97U | -3.82
27 | A3U A37U U90G A91G A119U | ≤ -4.2
28 | A3U A39G A52G U144C | -3.97
29 | A3U A39U U53G C75A G84U C85G C118U | ≤ -4.2
30 | A3U A40G C54U C95A C149G | ≤ -4.2
31 | A3U A40U U53C G74U U101G | ≤ -4.2
32 | A3U A41U | -1.29
33 | A3U A47U G71C C85A C103A | ≤ -4.2
34 | A3U A49C | ≤ -4.2
35 | A3U A49C G84C U90G C103G A115U | ≤ -4.2
36 | A3U A49G G50A C96U G141A | -3.63
37 | A3U A49G G84C | -3.89
38 | A3U A52U C57G G68A G88A A107G A115G A119G C125A | ≤ -4.2
39 | A3U A52U G84A A107G C123U A142C | ≤ -4.2
40 | A3U A64C A73G G81C A115G | ≤ -4.2
41 | A3U A64C G68A C87A | ≤ -4.2
42 | A3U A66G C85U C96A | ≤ -4.2

Row | Variant | polymerase ribozyme fitness (log ratio)
43 | A3U A66U C85A A150U | ≤ -4.2
44 | A3U A91C C93A U139C U151G | ≤ -4.2
45 | A3U C5A C54U C96U C114U C132A A142C | ≤ -4.2
46 | A3U C5G A21U C85U A122G G140U U144G | ≤ -4.2
47 | A3U C8A A39U A91G U111A A115U G117U | ≤ -4.2
48 | A3U C8G U31C U109G | ≤ -4.2
49 | A3U C10A A52C C75U C93U A150U | ≤ -4.2
50 | A3U C10G C38A A150G | ≤ -4.2
51 | A3U C14A U31C A66U C79G G80U A113U | ≤ -4.2
52 | A3U C14G A20G A40C U55A C63G G67C G83A A106C | ≤ -4.2
53 | A3U C14G C43U U44G C72A C93A C103A A142U C149G | ≤ -4.2
54 | A3U C14U A37C C63U G136U A147C | ≤ -4.2
55 | A3U C14U A47C U53A C85U C99U | ≤ -4.2
56 | A3U C14U C96A G133C A137C | ≤ -4.2
57 | A3U C18U A19G A89C C99A C108G A115G | ≤ -4.2
58 | A3U C27G C38U G48U G58U C79G G92A C105U G117U G143U | ≤ -4.2
59 | A3U C32U C54U G67U G86U | ≤ -4.2
60 | A3U C35A U56C C93U | ≤ -4.2
61 | A3U C35U A52U C87U U134G | ≤ -4.2
62 | A3U C36A U53C U78C C95G A115U A137C | ≤ -4.2
63 | A3U C36A U55C C79A C99A U145G | ≤ -4.2

Row | Variant | polymerase ribozyme fitness (log ratio)
64 | A3U C36U G46A G94C G136C | ≤ -4.2
65 | A3U C36U U55G G59A C93U A106U U151A | ≤ -4.2
66 | A3U C38G G50A A64U G94C A110U | ≤ -4.2
67 | A3U C38U C96U G126U G143A | ≤ -4.2
68 | A3U C43A U45A A47U G59C C125U U130C A137G | ≤ -4.2
69 | A3U C51U U53A G84A A106U U148A A150G | ≤ -4.2
70 | A3U C54A | -2.21
71 | A3U C57A G58A G68U A119G G141U | ≤ -4.2
72 | A3U C57U C87U A113C A119G | -3.73
73 | A3U C57U U61A A66G A91U | ≤ -4.2
74 | A3U C79G G83C U127A C149A | ≤ -4.2
75 | A3U C85U A107G C118G | ≤ -4.2
76 | A3U C93U C118U | -1.3
77 | A3U C105G | -1.75
78 | A3U C108U | -3.59
79 | A3U C116A U144G U151G | ≤ -4.2
80 | A3U G11A C14U G46C C76U C85A | ≤ -4.2
81 | A3U G11U C54U C57U G140U | ≤ -4.2
82 | A3U G34A C75U G86U | ≤ -4.2
83 | A3U G34A G71U A73G C79G C85G C87A G88U G92U A115G | ≤ -4.2
